# In PubChem BioAssay AID1508642 (National Center for Advancing Translational Sciences (NCATS), 2021):
# Hit rate of the full screen: of about 43,000 compounds, about 200 (0.47%) were called active. Inconclusive results (about 12%) are left out. The call rests on the fitted dose curve; in most records, active means well fitted cell-killing curve with a large enough effect; inconclusive means small, poorly fitted or top-dose-only effect, or effect the other way; inactive means flat fitted curve, though single readings scatter. Some of the results follow.
# Assay: Cell viability qHTS assay in S16 Pmp22-F2sN cells; further: nearly all actives have a fitted effect of over 65% in size
# Details: S16 Pmp22-F2sN Schwann cells (luciferase reporters placed in the Pmp22 gene) viability, CellTiter-Glo, 24 h; series mostly up to 57.5 µM; activity change, negative = cytotoxicity: at the top concentration
# Outline: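 CellTiter-Glo counter-screen, qHTS, 1536-well. Cells: S16(c9) Pmp22-F2sN, 500-1,000/well in DMEM + 10% FBS. Cpd 23 nL pin transfer, 24 h, 37C/5% CO2. Read: luminescence, CCD imager.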
# On the % scale 0 is the no-effect control and ±100 the full control effect.
row,SMILES,"activity change, negative = cytotoxicity"
1,CCOc1ccc(-c2cc(C(=O)NCc3ccccc3)c3c(-c4ccc(CC)cc4)[nH]nc3n2)cc1,inactive: -0.882%
2,Cc1ccccc1Nc1c2c(nc3nncn13)CCC2,inactive: 8.06%
3,Cc1c(C)n(C)c2ccc(C(=O)NCCCN3CCCCC3)cc12,inactive: -3.53%
4,Cc1ccc(-c2c(C(=O)NCCc3ccc(Cl)cc3)oc(=O)c3ccccc23)cc1,inactive: -0.879%
5,CCc1ccc(-c2ccc(C(=O)Oc3ccc(Br)cc3)cc2)nc1,inactive: 13.7%
6,COc1ccc(CNc2ncnc3c2c(-c2ccccc2)cn3-c2ccccc2)cc1,inactive: 4.02%
7,CCN(CC)S(=O)(=O)c1ccc(C(=O)N=c2sc3cccc(OC)c3n2C)cc1,inactive: 2.45%
8,Cc1ccc(S(=O)(=O)c2nc(-c3ccc(Cl)cc3)oc2N2CCCCCC2)cc1,inactive: 0.131%
9,Cc1ccc(-c2nc(SCc3ccc(Br)cc3)n3[nH]c(=O)cc3n2)cc1,inactive: -2.45%
10,COCCc1nn2c(=O)cc(COC(=O)c3ccc(C(C)(C)C)cc3)nc2s1,inactive: -2.53%
11,Cc1ccc(Cn2ccc(NC(=O)c3cc(-c4ccc(Cl)c(Cl)c4)on3)n2)cc1,inactive: -1.22%
12,Cc1ccc(-n2ncc(C(=O)N3CCN(Cc4ccccc4)CC3)c2C2CCN(C(=O)OC(C)(C)C)CC2)c(C)c1,inactive: 3.5%
13,CCOC(=O)c1ccccc1NC(=O)Cn1c(=O)n(Cc2ccccc2)c(=O)c2c(C)c(C)sc21,inactive: -6.57%
14,CCN(c1ccc(Cl)cc1)S(=O)(=O)c1nnc(NC(=O)C(C)C)s1,inactive: 17.2%
15,CCC(=O)Oc1ccc(-c2nc3ccccc3c(=O)o2)cc1,inactive: -0.108%
16,COc1ccc(-c2nnc(SCC(=O)Nc3ccc(F)cc3)s2)cc1,inactive: 4.57%
17,CN(C)c1ccc(C(CNS(=O)(=O)c2ccc(Br)cc2)N2CCOCC2)cc1 (configuration not stated),inactive: 15.1%
18,O=c1c2sc3ccccc3c2n(Cc2ccccc2F)c(=O)n1CCc1ccccc1,inactive: 1.08%
19,Cc1ccc(C)c(S(=O)(=O)c2nnn3c2nc(NCc2ccc4c(c2)OCO4)c2sccc23)c1,inactive: -4.01%
20,CN(C)c1ccc(NC(=O)Cn2c(SCc3ccccc3F)nc3cccnc32)cc1,inactive: -1.39%
21,C=Cc1ccc(Cn2c(=O)n(-c3cccc(C)c3)c(=O)c3c2c2cc(C)ccc2n3C)cc1,inactive: 12.3%

row,SMILES,"activity change, negative = cytotoxicity"
1,Cc1ccc(S(=O)(=O)c2c(C)nn(-c3ccccc3)c2OC(=O)c2ccccc2F)cc1,inactive: 0.353%
2,O=C(Nc1ccc2c(c1)N(C1CCCC1)C(=O)c1ccccc1S2)c1ccc(F)cc1,inactive: -12.5%
3,O=S(=O)(c1cccc(Cl)c1)c1nnn2c1nc(NC1CCCCCC1)c1sccc12,inactive: -5.96%
4,CCOc1ccc(CCNC(=O)c2ccc3nc(CC)c(CC)nc3c2)cc1,inactive: -9.18%
5,Fc1ccc(CNc2nc3ccc(Cl)cc3n3nnnc23)cc1,inactive: -1.81%
6,COc1cccc(-n2c(=O)c3sc4ccccc4c3n(CC(=O)Nc3cccc(Cl)c3)c2=O)c1,inactive: 22.2%
7,CCOc1ccc(OCC(=O)Nc2c(C(=O)Nc3ccc(C)cc3)oc3ccccc23)cc1,inactive: 2.03%
8,CSc1nn(Cc2ccc(Br)cc2)c(N(C(C)=O)C(C)=O)c1S(=O)(=O)c1ccccc1,inactive: 4.93%
9,CCn1c(CN2CCOCC2)nc2cc(NC(=O)c3cc(OC)c(OC)c(OC)c3)ccc21,inactive: -8.69%
10,CCc1ccccc1NC(=O)C1CCCN(c2nnc(-n3c(C)ccc3C)s2)C1 (configuration not stated),inactive: -12.1%
11,CCCCSCCCNC(=O)C1CCC(CNS(=O)(=O)c2ccccc2)CC1 (configuration not stated),inactive: 5.71%
12,CC1CCN(C(=O)Cn2ncc3c4ccccc4n(Cc4ccc(Cl)cc4)c3c2=O)CC1,inactive: -5.4%
13,COc1ccc(-c2cc(C(=O)NCc3ccccc3)c3c(-c4ccccc4)[nH]nc3n2)cc1,inactive: -1.23%
14,COc1ccccc1N1CCN(C(=O)Cc2c(C(=O)O)c(C)cn2C)CC1,inactive: 9.22%
15,COc1ccc(CCNC(=O)C(=O)NCC(c2ccco2)S(=O)(=O)c2ccccc2)cc1OC (configuration not stated),inactive: 0.181%
16,COc1ccc(CCNC(=O)CS(=O)Cc2nc(-c3ccc(C)cc3)oc2C)c(OC)c1 (configuration not stated),inactive: -9.03%
17,CCc1cccc(C)c1NC(=O)CSc1nnc(N)s1,inactive: 3.6%
18,CCOc1ccccc1NS(=O)(=O)c1cnc(N)nc1,inactive: 1.59%
19,Cc1ccccc1N1CCN(S(=O)(=O)c2nnc(NC(=O)c3ccc(Cl)cc3)s2)CC1,inactive: -1.46%
20,COc1ccc(-n2c(SCc3ccccc3F)nc3c([nH]c4ccccc43)c2=O)cc1,inactive: 20.9%
21,O=C(Cn1cc(S(=O)(=O)Cc2ccc(F)cc2)c2ccccc21)NCc1ccccc1Cl,inactive: -7.24%

row,SMILES,"activity change, negative = cytotoxicity"
1,O=C(NCCCc1nc2ccccc2n1Cc1ccc(Cl)cc1)c1ccco1,inactive: -17%
2,Cc1ccccc1CSc1nnc2[nH]c(=O)cc(C)n12,inactive: -1.76%
3,Cc1oc2ncn(CC(C)C)c(=O)c2c1C(=O)NCCCN(Cc1ccccc1)C(C)C,inactive: 10.5%
4,CCOc1ccc(NC(=O)CSc2nnc(-c3ccc(C)cc3)c(-c3ccc(C)cc3)n2)cc1,inactive: -0.0432%
5,O=C(NC1CC(=O)N(c2ccc(Cl)cc2)C1)c1ccc(S(=O)(=O)N2CCCC2)cc1 (configuration not stated),inactive: -19.2%
6,CCCC12CN3CC(C)(CN(C1)C3c1cn(C)c3ccccc13)C2=O (configuration not stated),inactive: 1.32%
7,CCc1cccc(NCc2ccccc2-c2nnc(-c3ccccc3Cl)o2)c1,inactive: 2.43%
8,Cc1ccc(NC(=O)N2CCC(CN3CCC(C)CC3)CC2)cc1F,inactive: -5.31%
9,COc1ccc(-c2cc(C(F)(F)F)nc(SCC(=O)NCCc3ccc(OC)c(OC)c3)n2)cc1,inactive: 22.7%
10,CCCc1cc(=O)n2[nH]c(-c3ccc(C)cc3)nc2n1,inactive: -12.9%
11,Cc1ccc(NC(=O)C2CCCN(c3nnc(-n4c(C)ccc4C)s3)C2)cc1Cl (configuration not stated),inactive: -12.9%
12,COc1cccc(CNC(=O)C(NS(=O)(=O)c2ccc3nc(C)sc3c2)C(C)C)c1 (configuration not stated),inactive: 8%
13,CCOC(=O)c1c(C)c(-c2ccccc2)n(CC(=O)NCCc2ccc(C)cc2)c1C,inactive: 14.4%
14,Cc1ccc2nc(CSc3nnc(NC(=O)COc4ccccc4)s3)cc(=O)n2c1,inactive: 0.764%
15,CCOC(=O)c1ccc(NC(=O)c2cc(=O)c3cc(CC)ccc3o2)cc1,inactive: -0.182%
16,CCS(=O)(=O)NCC(c1ccco1)N1CCN(c2ccc(OC)cc2)CC1 (configuration not stated),inactive: 0.31%
17,Cc1ccccc1CN1c2ccccc2-c2nc(SCC(=O)NCCc3ccccc3)ncc2S1(=O)=O,inactive: -3.89%
18,CCN(CC)c1ccc(-n2nc3cc(C)c(NC(=O)c4ccccc4F)cc3n2)cc1,inactive: 11%
19,Cc1cccc(NC(=O)CSc2nnc(C)c(=O)[nH]2)c1,inactive: -7.78%
20,COc1ccc(S(=O)(=O)N(C)Cc2nc(-c3cccc(C)c3)no2)cc1,inactive: -0.275%
